What was measured:
[1] = system: SARS-CoV-2 pseudovirus; assay: organism not typed; format: cell-based; conditions: 293T/ACE2 cells, mean ± SD (n = 3)
[2] = system: SARS-CoV-2 pseudovirus; assay: microbe, parasite or virus in culture; format: cell-based; conditions: HT1080/ACE2 cells, mean ± SD (n = 3)
[3] = system: Caco-2 cells (clone C2BBe1); P-gp
[4] = system: 293T/ACE2 cells; conditions: human
[5] = system: HT1080/ACE2 cells; conditions: human
[6] = 293T/ACE2, SARS-CoV-2 (WT) pseudovirus
[7] = Severe acute respiratory syndrome-related coronavirus, HT-1080, SARS-CoV-2 pseudovirus

C=CCN1C(=O)/C(=C/c2ccc(-c3cccc(C(=O)O)c3)o2)SC1=S [Compound 17]
IC50 [1, 6]: 322 ± 60 nM | IC50 [2, 7]: 283 ± 96 nM

O=C1NC(=S)S/C1=C\c1ccc(-c2ccc(C(=O)O)cc2)o1 [Compound 28]
IC50 [1, 6]: > 4000 nM | IC50 [2, 7]: > 4000 nM

Cc1ccc(-c2ccc(/C=C3\SC(=S)N(CC(C)C)C3=O)o2)cc1C(=O)O [Compound 22]
IC50 [1, 6]: > 4000 nM | IC50 [2, 7]: > 4000 nM

O=C(O)c1cc(-c2ccc(/C=C3\SC(=S)N(CCc4ccccc4)C3=O)o2)ccc1Cl [Compound 1, (Z)-2-Chloro-5-(5-((4-oxo-3-phenethyl-2-thioxothiazolidin-5-ylidene)methyl)furan-2-yl)benzoic acid]
P-gp Substrate Classification [3]: Negative

C=CCN1C(=O)/C(=C/c2ccc(-c3cc(C(=O)O)cc(C(=O)O)c3)o2)SC1=S [Compound 19]
IC50 [1, 6]: > 4000 nM | IC50 [2, 7]: > 4000 nM

O=C1NC(=S)S/C1=C\c1ccc(-c2ccc(Cl)c(C(=O)O)c2)o1 [Compound 12]
IC50 [1, 6]: > 4000 nM | IC50 [2, 7]: > 4000 nM

Cc1c(C(=O)O)cncc1-c1ccc(/C=C2\SC(=S)N(CCc3ccccc3)C2=O)o1 [Compound 9]
IC50 [2, 7]: 367 ± 73 nM

CN1C(=O)/C(=C/c2ccc(-c3cccc(C(=O)O)c3)o2)SC1=S [Compound 15]
IC50 [1, 6]: 154 ± 8 nM | IC50 [2, 7]: 166 ± 44 nM

NS(=O)(=O)c1ccc(-c2ccc(/C=C3\SC(=S)N(CCc4ccccc4)C3=O)o2)cc1 [Compound 11]
IC50 [1, 6]: 31 ± 0.2 nM | IC50 [2, 7]: 25 ± 0.2 nM

O=C(O)c1cccc(-c2ccc(/C=C3\SC(=S)N(C4CCCCC4)C3=O)o2)c1 [Compound 25]
IC50 [1, 6]: 36.3 ± 6.7 nM | IC50 [2, 7]: 39 ± 13 nM

CCN1C(=O)/C(=C/c2ccc(-c3cccc(C(=O)O)c3)o2)SC1=S [Compound 13]
IC50 [1, 6]: 92 ± 24 nM | IC50 [2, 7]: 176 ± 1 nM

C#CCN1C(=O)/C(=C/c2ccc(-c3ccc(Cl)c(C(=O)O)c3)o2)SC1=S [Compound 23]
IC50 [1, 6]: > 4000 nM | IC50 [2, 7]: > 4000 nM

O=C(O)c1cc(-c2ccc(/C=C3\SC(=S)N(C4CCCCC4)C3=O)o2)ccc1Cl [Compound 18]
IC50 [1, 6]: 13.4 ± 1.8 nM | IC50 [2, 7]: 16 ± 2.6 nM

CN1C(=O)/C(=C/c2ccc(-c3cccc(C(=O)O)c3)o2)SC1=S [Compound 27]
CC50 [4]: > 100000 nM | IC50 ([1]; SARS-CoV-2 (WT) pseudovirus): 200 ± 11 nM | IC50 ([2]; SARS-CoV-2 pseudovirus): 148 ± 85 nM | CC50 [5]: > 100000 nM

C=CCN1C(=O)/C(=C/c2ccc(-c3cccc(C(=O)O)c3C)o2)SC1=S [Compound 20]
IC50 [1, 6]: 111 ± 3.5 nM | IC50 [2, 7]: 199 ± 12 nM

N=C1NC(=O)/C(=C/c2ccc(-c3ccc(Cl)c(C(=O)O)c3)o2)S1 [Compound 26]
IC50 [1, 6]: > 4000 nM

COCCN1C(=O)/C(=C/c2ccc(-c3ccc(Cl)c(C(=O)O)c3)o2)SC1=S [Compound 14]
IC50 [1, 6]: 867 ± 110 nM | IC50 [2, 7]: 860 ± 248 nM

O=C1/C(=C/c2ccc(-c3ccccc3)o2)SC(=S)N1CCc1ccccc1 [Compound 16]
IC50 [1, 6]: 231 ± 62 nM | IC50 [2, 7]: 592 ± 112 nM

O=C1C(=Cc2ccc(-c3ccc(Cl)cc3)o2)SC(=S)N1CCc1ccccc1 [Compound 10, 5-((5-(4-chlorophenyl)furan-2-yl)methylene)-3-phenethyl-2-thioxothiazolidin-4-one]
IC50 [2, 7]: > 2000 nM

O=C1NC(=S)S/C1=C\c1ccc(-c2ccc(C(=O)O)c(Cl)c2)o1 [Compound 21]
IC50 [1, 6]: > 4000 nM | IC50 [2, 7]: > 4000 nM

CCN1C(=O)/C(=C/c2ccc(-c3ccc(Cl)c(C(=O)O)c3)o2)SC1=S [Compound 24]
IC50 [1, 6]: 111 ± 6.6 nM | IC50 [2, 7]: 175 ± 16 nM

— patent publication US20220348569A1 (priority 2021, published 2022)
